Experimental data taken from ChEMBL document CHEMBL1201862, “PubChem BioAssay data set” (2004).
Counter-ions that a name gives are not always drawn.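 Method: 48-hour compound exposure of cells in 96-well plates, five concentrations, linear interpolation of endpoints. GI50: concentration for 50% inhibition of growth.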 Active and inactive are the calls of the source. No stated cut-off is given here; in the data, active = GI50 up to about 1.1 µM and inactive = higher.

What follows are compounds tested on NCI-H322M (assay: inhibition of tumour cell growth, NCI panel, 48 h).

Row | Compound | GI50
1 | COc1ccc(C(=O)Cc2ccc(Cl)cc2)cc1OC | inactive: > 100 µM
2 | COc1cc(C2C(C(=O)NCc3ccccc3)=C(C)NC(C)=C2C(=O)NCc2ccccc2)ccc1O | inactive: 54 µM
3 | CCCc1ccc(OCC(=O)N/N=C/c2c(-c3ccccc3)[nH]c3ccccc23)cc1 | inactive: 22.5 µM
4 | Cc1ccc(O)c(C2=NNC(c3cccc(Br)c3)C2)c1 (stereo not given) | inactive: > 100 µM
5 | C1=Cc2nc1c(-c1ccncc1)c1ccc([n-]1)c(-c1ccncc1)c1nc(c(-c3ccncc3)c3ccc([n-]3)c2-c2ccncc2)C=C1.[Zn+2] | inactive: > 100 µM
6 | CN1CCCOC(c2ccc([N+](=O)[O-])cc2)O1 (stereo not given) | inactive: > 100 µM
7 | C[S+](C)([O-])=Nn1c(=O)n2n(c1=O)[C@H]1CC[C@@H]2C1 | inactive: > 100 µM
8 | N#CC(/N=N/c1ccccc1)c1nc2ccccc2o1 (stereo not given) | inactive: 90.6 µM
9 | O=C1[C@@H]2C3C=CC([C@H]4C(=O)N(CO)C(=O)[C@@H]34)[C@@H]2C(=O)N1CO | inactive: > 100 µM
10 | COc1ccc(COC(=O)NNC(=O)C2CSC(c3ccccc3)N2C(C)=O)cc1 (stereo not given) | inactive: > 100 µM
11 | Cc1ccccc1C1=[N+]([O-])c2ccccc2C1=O | inactive: 34.2 µM
12 | COc1ccc(/C=C2\CCC(CCN3CCOCC3)C2=O)cc1 (stereo not given) | inactive: > 100 µM
13 | COc1ccc(Br)c2c1CC(C(=O)O)CC2 (stereo not given) | inactive: > 100 µM
14 | CSCCCNC(=O)c1csc([C@@H](CSC)NC(=O)CCNC(=O)[C@@H](NC(=O)OCC(Br)(Br)Br)C(C)O)n1 (stereo not given in full) | inactive: > 100 µM
15 | CCCCCCCCCCCCCCCCOCC(CP(=O)([O-])OCC[n+]1ccccc1)OC (stereo not given) | inactive: 18.8 µM
16 | COc1ccccc1NC(=O)C1=C(C)NC(C)=C(C(=O)Nc2ccccc2OC)C1c1ccccc1Cl | inactive: > 100 µM
17 | CC(=O)O[C@@H]1[C@H]2[C@@H](OC(=O)c3ccccc3)[C@@H](C)C[C@]2(O)[C@H](OC(C)=O)[C@@]2(C)[C@@H]3C[C@@](C)(OC(C)=O)C[C@@H](OC(C)=O)[C@@]3(OC(C)=O)C[C@@]12C | inactive: > 10 µM
18 | OCCN1CCN(c2nc(N3CCCC3)c3nc(Cl)c(NCc4ccccc4)nc3n2)CC1 | inactive: 10.4 µM
19 | OCC1C2CCC3(OCCO3)C12 (stereo not given) | inactive: > 100 µM
20 | CC12CCC(=O)N1c1ccc([N+](=O)[O-])cc1N2 (stereo not given) | inactive: > 100 µM
21 | S=C1CC(c2ccccc2)Sc2ccc(Cl)cc2N1 (stereo not given) | inactive: 47.3 µM
22 | Cc1ccc(Cn2c(C)nc3c2C(=O)c2ccccc2C3=O)cc1 | inactive: 11.2 µM
23 | CCCCCCCCCCCCCCCC/C(C(=O)OC)=C(/O)C(=O)OCC | inactive: > 100 µM

Row | Compound | GI50
24 | Cc1ccc(C(=O)/C=C2/Nc3ccc([N+](=O)[O-])cc3N/C2=C/C(=O)c2ccc(C)cc2)cc1 | inactive: 97.3 µM
25 | O=c1c2cc3c(cc2[nH]c2ncccc12)OCO3 | inactive: > 10 µM
26 | N#CC1=C(S)N(C2OC(CO)C(O)C(O)C2O)C(c2ccccc2)=CC1c1ccccc1 (stereo not given) | inactive: > 100 µM
27 | S=C(NCCCCCCNC(=S)Nc1c2ccccc2nc2ccccc12)Nc1c2ccccc2nc2ccccc12 | inactive: 65.8 µM
28 | CN(/N=N/c1[nH]cnc1C(N)=O)C1CCCCC1 | inactive: > 100 µM
29 | COC(=O)C1=C(C(=O)OC)C(C(=O)c2ccccc2)N2N=C(c3ccc(Cl)cc3)C=CC12 (stereo not given) | inactive: > 100 µM
30 | CC(C)(CN1CCCCC1)C(=O)CC(SCCS(=O)(=O)O)c1ccc(Cl)cc1 (stereo not given) | inactive: 8.99 µM
31 | c1cc2c(c(NC3=NCCN3)c1)CCCC2 | inactive: > 100 µM
32 | Cc1ccc(S(=O)(=O)n2c3c(c4ccccc42)CCN2CCC(Br)C[C@@H]32)cc1 (stereo not given in full) | inactive: 19.1 µM
33 | CC1=C(C(=O)CC(=O)C(=O)Nc2cccc(C)c2C)Sc2ccccc2N1 | inactive: > 100 µM
34 | Cc1ccc(-c2c(C#N)c(-c3ccc([N+](=O)[O-])cc3)c(C#N)c(=O)n2NS(=O)(=O)c2ccccc2)cc1 | inactive: 63.5 µM
35 | COc1cc(C2CC(C)(Nc3ccccc3)Oc3cc4c(cc32)OCO4)cc(OC)c1OC (stereo not given) | active: 0.582 µM
36 | CC(C)(C)OC(=O)CN1CCNCCNCC1 | inactive: > 100 µM
37 | CCCCNCC(=O)O[C@]1(CC)C(=O)OCc2c1cc1n(c2=O)Cc2cc3ccccc3nc2-1 | active: 0.826 µM
38 | CCc1nc2ccc(NCCN(C)C)c3c(=O)c4ccccc4n1c23 | active: 0.845 µM
39 | CC(=O)OCCOCNC(=S)N/N=C/c1ccc([N+](=O)[O-])s1 | inactive: 32.9 µM
40 | Cc1cc(C)c2c(c1)C/C(=C\c1ccccc1C(=O)O)C2=O | inactive: > 10 µM
41 | CCN(CC)c1ccc(C(=O)c2ccccc2C(=O)O)c(O)c1 | inactive: > 100 µM
42 | CN(CCCNC(=O)c1nn(C)c2c1Cc1ccccc1-2)CCCNC(=O)c1nn(C)c2c1Cc1ccccc1-2 | inactive: 15.2 µM
43 | COc1ccc2cc(/C=N\NC(=O)Nc3ccc([N+](=O)[O-])cc3)ccc2c1 | inactive: 16 µM
44 | CC(C)(C)OC(=O)N1C[C@H](CC(=O)OCc2ccccc2)C[C@H]1C(=O)OCC(Cl)(Cl)Cl | inactive: > 50 µM
45 | CCCCCCC1=NOC(C(c2cc[nH]c2)N(C)[C@H](C(=O)OC)C(C)C)C1 (stereo not given in full) | inactive: > 100 µM
46 | CSC1=N/C(=C\c2c[nH]c3ccccc23)C(=O)N1 | inactive: 56 µM

Row | Compound | GI50
47 | CC(=O)C1C(=O)C(=O)N(c2ccc([N+](=O)[O-])cc2)C1=O (stereo not given) | inactive: > 100 µM
48 | Cc1cc(C)c(S(=O)(=O)N2CCCN(S(=O)(=O)c3c(C)cc(C)cc3C)OCCCO2)c(C)c1 | inactive: > 100 µM
49 | NS(=O)(=O)c1cc2c(cc1Cl)NC(Cc1ccccc1)NS2(=O)=O (stereo not given) [BENZYLHYDROCHLOROTHIAZIDE] | inactive: > 100 µM
50 | Cc1cc(NS(=O)(=O)c2ccc(Nc3c4ccccc4nc4c(C(=O)N5CCN(CCOS(C)(=O)=O)CC5)cccc34)cc2)no1 | inactive: > 100 µM
51 | Cc1ccc(NC(=O)SCCC(=O)O)cc1NC(=O)SCCC(=O)O | inactive: > 100 µM
52 | O=C(O)CCCc1ccc2c(c1)C(C(=O)O)CC2 (stereo not given) | inactive: > 100 µM
53 | COC(=O)c1cc(/C=C/C(=O)Cc2ccccc2)cn1S(=O)(=O)c1ccccc1 | inactive: > 100 µM
54 | CN(CCNC(=O)c1cn(C)c2c1ccc1cc(Cl)ccc12)CCNC(=O)c1cn(C)c2c1ccc1cc(Cl)ccc12 | inactive: 1.92 µM
55 | CC1(C)C2C=C(CCN3CCOCC3)CC1C2 (stereo not given) | inactive: > 100 µM
56 | CCSc1nc(N)c2c(-c3ccc(OC)c(OC)c3)c3c(nc2n1)CCCC3 | inactive: > 100 µM
57 | CCOC(=O)/C(=C\c1cn(C(C)=O)c2ccccc12)P(C)(=O)OCC (stereo not given) | inactive: 31 µM
58 | CC(C)C(C=O)C(O)(C(F)(F)F)C(F)(F)F (stereo not given) | inactive: > 100 µM
59 | CC(=O)c1cccc2c1CC1(C2)Cc2ccc3c(c2C1=O)CCC3 (stereo not given) | inactive: > 100 µM
60 | COc1ccc([C@]23CCC4(OCC(C)(C)CO4)[C@H]4CON(O[C@H](O[C@@H]5CCCCC5C(C)(C)c5ccccc5)C2)[C@@H]43)cc1OC (stereo not given in full) | inactive: > 100 µM
61 | S=C=NC1CCC(c2cc3ccccc3s2)(N2CCCCC2)CC1 (stereo not given) | inactive: 4.01 µM
62 | N#C/C(=C/c1ccc([N+](=O)[O-])o1)c1ccccc1 | inactive: > 100 µM
63 | Cc1[nH]n(-c2nc3c(c(=O)[nH]2)CCC3)c(=O)c1CCO | inactive: > 100 µM
64 | CC(C)C1C(=O)N(c2c(F)c(F)c(F)c(F)c2F)C(=S)N1CC[S+]([O-])c1ccccc1 (stereo not given) | inactive: 17 µM
65 | COc1ccc(S(=O)(=O)N/N=C/CN2C(=O)c3ccccc3C2=O)cc1 | inactive: > 100 µM
66 | CN(C)CCOC(c1ccccc1)c1ccccc1 [DIPHENHYDRAMINE HYDROCHLORIDE] | inactive: > 100 µM
67 | OC[C@@H](O)[C@H]1NC[C@@H](O)[C@H]1O | inactive: > 100 µM
68 | O=c1[nH]nc(Cc2ccccc2)n1/N=C/c1ccccc1O | inactive: > 100 µM
69 | CN1CCN(C(=S)N(C(=O)c2cccs2)c2ccccc2)CC1 | inactive: > 100 µM

Row | Compound | GI50
70 | Cc1cn(C2CCN(CC3COC(C)(C)O3)O2)c(=O)[nH]c1=O (stereo not given) | inactive: > 100 µM
71 | COc1nc(NC2OC(COC(C)=O)C(OC(C)=O)C(OC(C)=O)C2OC(C)=O)c(-c2csc(N)n2)c(=O)n1C (stereo not given) | inactive: > 100 µM
72 | COc1ccc(-c2cc(=O)c3c(O)cc(O)cc3o2)cc1OC | inactive: > 100 µM
73 | CCCC1NC(=O)C(CC(C)C)NC(=O)c2cccc(n2)C(=O)NC(CC(C)C)C(=O)NC(CCC)C(=O)NC(C(=O)OC)CCCCNC1=O (stereo not given) | inactive: 38.7 µM
74 | COc1ccc2c(c1)N(CCC1CCCCN1C)c1ccccc1S2 (stereo not given) [OXYRIDAZINE] | inactive: 14.4 µM
75 | O=P1(O)c2ccccc2CSCc2ccccc21 | inactive: > 100 µM
76 | CCOC(CNc1nn2c(C)nnc2s1)OCC | inactive: > 100 µM
77 | O=C1C=CC(=O)N1n1c(Cc2ccccc2)n[nH]c1=O | inactive: > 100 µM
78 | N#Cc1c(-c2ccco2)cc(-c2ccc(NCc3nc4ccccc4[nH]3)cc2)nc1N | inactive: 32.7 µM
79 | CC(=O)N1c2ccccc2N(C(C)=O)C1c1ccc(C2N(C(C)=O)c3ccccc3N2C(C)=O)[nH]1 | inactive: > 100 µM
80 | CCOC(=O)C1=CN/C(=C(/C)C(=O)OC)SC1C(=O)OCC (stereo not given) | inactive: > 100 µM
81 | CC(C)CC(NC=O)C(=O)NC(Cc1ccccc1)NC(=O)CNC(=O)C(C)NC(=O)OC(C)(C)C (stereo not given) | inactive: > 100 µM
82 | O=C(NCCCl)N(O)C(=O)Nc1ccccc1 | inactive: > 100 µM
83 | N#CC1C(=O)NC23CCCCC2C1c1ccccc1O3 (stereo not given) | inactive: > 100 µM
84 | COc1cccc2c1C(=O)c1c(O)c3c(c(O)c1C2=O)C[C@@](O)(C(=O)CO)CC3OC1CC(NCCCCC(OC(C)=O)OC(C)=O)C(O)C(C)O1 (stereo not given in full) | active: 0.00338 µM
85 | CCCCN1CSC(=S)N(Cc2ccccc2)C1 | inactive: > 100 µM
86 | Cc1cn(C2CC(N)C(C(=O)NCC(=O)O)O2)c(=O)[nH]c1=O (stereo not given) | inactive: > 100 µM
87 | O=C(O)C1(Cc2ccc3c(c2)CCC3)Cc2ccccc2C1=O (stereo not given) | inactive: 55.8 µM
88 | N/C(S)=N/N=C/c1ccc(O)cn1 | inactive: 13.5 µM
89 | CCCCC(NC(=O)CC)C(=O)O (stereo not given) | inactive: > 100 µM
90 | C=C1c2nc3ccccc3n2C=C(c2ccc(C)cc2)N1c1ccc(OC)cc1 | inactive: > 100 µM
